Experimental data reported in the supplement of paper PMC4967469.
A lower IC50 marks a more sensitive line; where the fit passes the top or lowest dose, that dose stands as a limit. For AUC the same curve is integrated over the 256-fold range of doses and scaled to a fraction; the more sensitive the line, the further below 1. Any top dose called inferred was derived from the fitted curves, not read from the paper. For part of these data: Drugs with an entry number were screened twice under separate entries, and the two screens often disagree.

Compound: Cc1cccc(-c2[nH]c(C(C)(C)C)nc2-c2ccc3nccnc3c2)n1 [SB-525334]
Assay: Viability of human cancer cell lines after 72 h of drug (GDSC screen)
Details: top dose 20 µM; top dose inferred
Description: (§1)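 Human cancer cell lines in 384-well plates, medium with 10% serum, drug for 72 h over a 256-fold dose range (nine 2-fold or five 4-fold steps up to the top dose). Adherent lines were fixed and stained with the nucleic acid dye Syto60, suspension lines read with resazurin; signal relative to control wells, capped at 0 and 100%. One two-parameter sigmoid per drug and line, fitted in a mixed model over all curves with the slope shared within a line.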

Cell Line | AUC | IC50
ALL-SIL (T-cell leukaemia, suspension) | 0.909 | > 20 µM
ES3 (Ewing sarcoma, adherent) | 0.712 | 5.16 µM
ES8 (Ewing sarcoma, adherent) | 0.852 | 13.8 µM
LB996-RCC (kidney, adherent) | 0.979 | > 20 µM
LB1047-RCC (kidney, adherent) | 0.975 | > 20 µM
LNCaP-Clone-FGC (prostate, adherent) | 0.651 | 3.5 µM
LOXIMVI (melanoma, semi-adherent) | 0.968 | > 20 µM
NB7 (neuroblastoma, adherent) | 0.784 | 8.91 µM
NEC8 (testis, adherent) | 0.984 | > 20 µM
NOMO-1 (acute myeloid leukaemia, suspension) | 0.977 | > 20 µM
OVCAR-4 (ovary, adherent) | 0.927 | > 20 µM
RS4-11 (leukaemia, suspension) | 0.973 | > 20 µM
SCC-15 (head and neck, adherent) | 0.972 | > 20 µM
SNU-C1 (large intestine, suspension) | 0.973 | > 20 µM
SU-DHL-8 (B-cell lymphoma, suspension) | 0.857 | 14.6 µM
TC-71 (Ewing sarcoma, adherent) | 0.602 | 2.27 µM
TE-10 (oesophagus, adherent) | 0.979 | > 20 µM

Compound: Cc1cc(N2CCOCC2)cc2[nH]c(-c3c(NC[C@@H](O)c4cccc(Cl)c4)cc[nH]c3=O)nc12 [BMS-536924]
Assay: as above
Details: top dose 4 µM; screen: GDSC drug entry 1091; top dose inferred
Description: as §1

Cell Line | AUC | IC50
ALL-SIL (T-cell leukaemia, suspension) | 0.809 | 1.74 µM
ES3 (Ewing sarcoma, adherent) | 0.751 | 1.38 µM
ES8 (Ewing sarcoma, adherent) | 0.703 | 0.888 µM
IST-SL2 (small cell lung carcinoma, suspension) | 0.987 | > 4 µM
LB647-SCLC (small cell lung carcinoma, semi-adherent) | 0.943 | > 4 µM
LB996-RCC (kidney, adherent) | 0.826 | 2.97 µM
LB1047-RCC (kidney, adherent) | 0.787 | 1.97 µM
LNCaP-Clone-FGC (prostate, adherent) | 0.937 | > 4 µM
LOXIMVI (melanoma, semi-adherent) | 0.879 | 3.33 µM
NB7 (neuroblastoma, adherent) | 0.985 | > 4 µM
NEC8 (testis, adherent) | 0.891 | 3.4 µM
NOMO-1 (acute myeloid leukaemia, suspension) | 0.971 | > 4 µM
OVCAR-4 (ovary, adherent) | 0.924 | > 4 µM
RS4-11 (leukaemia, suspension) | 0.957 | > 4 µM
SCC-15 (head and neck, adherent) | 0.786 | 2.41 µM
SKM-1 (haematopoietic neoplasm, suspension) | 0.687 | 0.884 µM
SNU-C1 (large intestine, suspension) | 0.732 | 1.59 µM
SU-DHL-8 (B-cell lymphoma, suspension) | 0.981 | > 4 µM
TC-71 (Ewing sarcoma, adherent) | 0.815 | 1.74 µM
TE-10 (oesophagus, adherent) | 0.932 | > 4 µM

Same assay, conditions: top dose 5.12 µM; screen: GDSC drug entry 62

Cell Line | AUC | IC50
ALL-SIL (T-cell leukaemia, suspension) | 0.644 | 0.754 µM
ES3 (Ewing sarcoma, adherent) | 0.902 | > 5.12 µM
ES8 (Ewing sarcoma, adherent) | 0.787 | 2.04 µM
IST-SL2 (small cell lung carcinoma, suspension) | 0.923 | > 5.12 µM
LB647-SCLC (small cell lung carcinoma, semi-adherent) | 0.901 | > 5.12 µM
LB996-RCC (kidney, adherent) | 0.634 | 0.8 µM
LB1047-RCC (kidney, adherent) | 0.643 | 0.839 µM
LNCaP-Clone-FGC (prostate, adherent) | 0.965 | > 5.12 µM
LOXIMVI (melanoma, semi-adherent) | 0.897 | > 5.12 µM
NB7 (neuroblastoma, adherent) | 0.916 | > 5.12 µM
NEC8 (testis, adherent) | 0.964 | > 5.12 µM
NOMO-1 (acute myeloid leukaemia, suspension) | 0.897 | > 5.12 µM
OVCAR-4 (ovary, adherent) | 0.796 | 3.9 µM
RS4-11 (leukaemia, suspension) | 0.718 | 1.24 µM
SCC-15 (head and neck, adherent) | 0.904 | > 5.12 µM
SKM-1 (haematopoietic neoplasm, suspension) | 0.95 | > 5.12 µM
SNU-C1 (large intestine, suspension) | 0.701 | 1.55 µM
SU-DHL-8 (B-cell lymphoma, suspension) | 0.93 | > 5.12 µM
TC-71 (Ewing sarcoma, adherent) | 0.984 | > 5.12 µM
TE-10 (oesophagus, adherent) | 0.68 | 1 µM

Compound: NC(=O)c1ccc(N(C(N)=O)c2c(F)cccc2F)nc1-c1ccc(F)cc1F [VX-702]
Assay: as above
Details: top dose 2 µM; top dose inferred
Description: as §1

Cell Line | AUC | IC50
ALL-SIL (T-cell leukaemia, suspension) | 0.989 | > 2 µM
ES8 (Ewing sarcoma, adherent) | 0.974 | > 2 µM
IST-SL2 (small cell lung carcinoma, suspension) | 0.985 | > 2 µM
LB647-SCLC (small cell lung carcinoma, semi-adherent) | 0.938 | > 2 µM
LB1047-RCC (kidney, adherent) | 0.983 | > 2 µM
NEC8 (testis, adherent) | 0.991 | > 2 µM
NOMO-1 (acute myeloid leukaemia, suspension) | 0.851 | 1.87 µM
OVCAR-4 (ovary, adherent) | 0.961 | > 2 µM
SNU-C1 (large intestine, suspension) | 0.973 | > 2 µM

Compound: CC(C)=CC[C@@H](O)C1=CC(=O)c2c(O)ccc(O)c2C1=O [Shikonin]
Assay: as above
Details: top dose 16 µM; top dose inferred
Description: as §1

Cell Line | AUC | IC50
ALL-SIL (T-cell leukaemia, suspension) | 0.374 | 0.474 µM
ES3 (Ewing sarcoma, adherent) | 0.423 | 0.607 µM
ES8 (Ewing sarcoma, adherent) | 0.409 | 0.575 µM
IST-SL2 (small cell lung carcinoma, suspension) | 0.253 | 0.197 µM
LB647-SCLC (small cell lung carcinoma, semi-adherent) | 0.278 | 0.215 µM
LB996-RCC (kidney, adherent) | 0.758 | 6.4 µM
LB1047-RCC (kidney, adherent) | 0.353 | 0.372 µM
LNCaP-Clone-FGC (prostate, adherent) | 0.919 | > 16 µM
LOXIMVI (melanoma, semi-adherent) | 0.421 | 0.625 µM
NB7 (neuroblastoma, adherent) | 0.477 | 0.862 µM
NEC8 (testis, adherent) | 0.466 | 0.82 µM
NOMO-1 (acute myeloid leukaemia, suspension) | 0.533 | 1.24 µM
OVCAR-4 (ovary, adherent) | 0.483 | 0.876 µM
RS4-11 (leukaemia, suspension) | 0.351 | 0.402 µM
SCC-15 (head and neck, adherent) | 0.482 | 0.879 µM
SU-DHL-8 (B-cell lymphoma, suspension) | 0.355 | 0.41 µM
TC-71 (Ewing sarcoma, adherent) | 0.526 | 1.16 µM
TE-10 (oesophagus, adherent) | 0.542 | 1.3 µM

Compound: CCNc1cc(NC2CCC(O)CC2)nc(Nc2ccc3c(ccn3Cc3ccccc3)c2)n1 [CGP-082996 (CINK4)]
Assay: as above
Details: top dose 5.12 µM; top dose inferred
Description: as §1

Cell Line | AUC | IC50
ALL-SIL (T-cell leukaemia, suspension) | 0.89 | 4.46 µM
ES3 (Ewing sarcoma, adherent) | 0.897 | > 5.12 µM
ES8 (Ewing sarcoma, adherent) | 0.975 | > 5.12 µM
IST-SL2 (small cell lung carcinoma, suspension) | 0.862 | 4.32 µM
K-562 (chronic myeloid leukaemia, suspension) | 0.874 | 4.72 µM
LB647-SCLC (small cell lung carcinoma, semi-adherent) | 0.981 | > 5.12 µM
LB996-RCC (kidney, adherent) | 0.98 | > 5.12 µM
LB1047-RCC (kidney, adherent) | 0.857 | 5.01 µM
LNCaP-Clone-FGC (prostate, adherent) | 0.968 | > 5.12 µM
LOXIMVI (melanoma, semi-adherent) | 0.989 | > 5.12 µM
NB7 (neuroblastoma, adherent) | 0.958 | > 5.12 µM
NEC8 (testis, adherent) | 0.937 | > 5.12 µM
NOMO-1 (acute myeloid leukaemia, suspension) | 0.97 | > 5.12 µM
OVCAR-4 (ovary, adherent) | 0.866 | > 5.12 µM
RS4-11 (leukaemia, suspension) | 0.858 | 3.65 µM
SCC-15 (head and neck, adherent) | 0.956 | > 5.12 µM
SKM-1 (haematopoietic neoplasm, suspension) | 0.93 | > 5.12 µM
SNU-C1 (large intestine, suspension) | 0.943 | > 5.12 µM
SU-DHL-8 (B-cell lymphoma, suspension) | 0.884 | 4.88 µM
TC-71 (Ewing sarcoma, adherent) | 0.992 | > 5.12 µM
TE-10 (oesophagus, adherent) | 0.839 | 3.4 µM

Compound: Cc1ccc(-n2nc(C(C)(C)C)cc2NC(=O)Nc2ccc(OCCN3CCOCC3)c3ccccc23)cc1 [BIRB 0796]
Assay: as above
Details: top dose 10 µM; top dose inferred
Description: as §1

Cell Line | AUC | IC50
ES3 (Ewing sarcoma, adherent) | 0.976 | > 10 µM
ES8 (Ewing sarcoma, adherent) | 0.941 | > 10 µM
IST-SL2 (small cell lung carcinoma, suspension) | 0.966 | > 10 µM
LB647-SCLC (small cell lung carcinoma, semi-adherent) | 0.938 | > 10 µM
LB996-RCC (kidney, adherent) | 0.979 | > 10 µM
LB1047-RCC (kidney, adherent) | 0.894 | > 10 µM
LNCaP-Clone-FGC (prostate, adherent) | 0.973 | > 10 µM
LOXIMVI (melanoma, semi-adherent) | 0.989 | > 10 µM
NB7 (neuroblastoma, adherent) | 0.983 | > 10 µM
